# Experiments:
# EMRSA-15 [1] = assay: MIC by broth microdilution (antibacterial susceptibility test of EMRSA-15); format: cell-based, methicillin-resistant Staphylococcus aureus (MRSA)
# EMRSA-15 [2] = assay: Oxacillin sensitization: growth of EMRSA-15 with peptide, oxacillin and fixed PHMB; format: cell-based, methicillin-resistant Staphylococcus aureus (MRSA)
# [3] = molecular target: T1, MecA (Penicillin binding protein 2A, PBP2A) (Staphylococcus aureus); assay: In vitro binding to MecA and block of oxacillin binding; set-up: species or system methicillin-resistant Staphylococcus aureus (MRSA)
# T1 construct: The primers were designed so that the first 23 amino acids at the N terminus were deleted; GST (N, cleaved yes); primer-encoded linker LEVLFQGP-M (my own translation of the forward primer); made in house; host or cells: Escherichia coli BL21(DE3)
# EMRSA-15 [4] = assay: Oxacillin sensitization: growth of EMRSA-15 with peptide, oxacillin and fixed PHMB; format: cell-based, methicillin-resistant Staphylococcus aureus (MRSA); set-up: key: 1 is growth; 0 is no growth; conditions: PHMB 0.25 μg/ml
# EMRSA-15 [5] = assay: as above; format: cell-based, methicillin-resistant Staphylococcus aureus (MRSA); set-up: key: 1 indicates growth; 0 indicates no growth; conditions: PHMB 1 ug/ml
# [6] = growth media with oxacillin 64 μg/ml
molecule,measurement,setting,value
"MecA3136: MecA (PBP2A) binding peptide aptamer, Affimer on Stefin A scaffold, Sequence ID No. 1 (protein, Peptide sequence MecA3136) MHHHHHHSSGLVPCGWLKETAAAKFERQHMDSPDLSTWSHPQFEKGGGSGGGSGGGSWSHPQFEKGTGSGGGSGGGSWSHPQFEKGTGSGGGSGGGSWSHPQFEKGTGSGGGSGGGSWSHPQFEKGTDDDDKAMADIGSEMIPRGLSEAKPATPEIQEIVDKVKPQLEEKTNETYGKLEAVQYKTQVLAKILTLGSTNYYIKVRAGDNKYMHLKVFKSLALELSETPTPKAADRVLTGYQVDKNKDDELTGF",MIC of EMRSA-15,EMRSA-15 [1]; [6],>176 µg/mL
same,MIC of EMRSA-15,EMRSA-15 [1]; growth media: no oxacillin,>512 µg/mL
same,enhancement of oxacillin activity,EMRSA-15 [2],clear enhancement of oxacillin activity
same,binding to MecA and block of oxacillin binding,[3],bind to MecA and block oxycillin binding to MecA
same,Growth of EMRSA-15,"EMRSA-15 [4]; MecA3136 0.25 uM, oxacillin 0 ug/ml",1
same,Growth of EMRSA-15,"EMRSA-15 [4]; MecA3136 0.25 uM, oxacillin 16 ug/ml",1
same,Growth of EMRSA-15,"EMRSA-15 [4]; MecA3136 0.25 uM, oxacillin 32 ug/ml",1
same,Growth of EMRSA-15,"EMRSA-15 [4]; MecA3136 0.25 uM, oxacillin 64 ug/ml",1
same,Growth of EMRSA-15,"EMRSA-15 [4]; MecA3136 0.5 uM, oxacillin 0 ug/ml",1
same,Growth of EMRSA-15,"EMRSA-15 [4]; MecA3136 0.5 uM, oxacillin 16 ug/ml",1
same,Growth of EMRSA-15,"EMRSA-15 [4]; MecA3136 0.5 uM, oxacillin 32 ug/ml",1
same,Growth of EMRSA-15,"EMRSA-15 [4]; MecA3136 0.5 uM, oxacillin 64 ug/ml",0
same,Growth of EMRSA-15,"EMRSA-15 [4]; MecA3136 1 uM, oxacillin 0 ug/ml",1
same,Growth of EMRSA-15,"EMRSA-15 [4]; MecA3136 1 uM, oxacillin 16 ug/ml",1
same,Growth of EMRSA-15,"EMRSA-15 [4]; MecA3136 1 uM, oxacillin 32 ug/ml",1
same,Growth of EMRSA-15,"EMRSA-15 [4]; MecA3136 1 uM, oxacillin 64 ug/ml",0
same,Growth of EMRSA-15,"EMRSA-15 [4]; MecA3136 2 uM, oxacillin 0 ug/ml",1
same,Growth of EMRSA-15,"EMRSA-15 [4]; MecA3136 2 uM, oxacillin 16 ug/ml",1
same,Growth of EMRSA-15,"EMRSA-15 [4]; MecA3136 2 uM, oxacillin 32 ug/ml",0
same,Growth of EMRSA-15,"EMRSA-15 [4]; MecA3136 2 uM, oxacillin 64 ug/ml",0
same,Growth of EMRSA-15,"EMRSA-15 [4]; MecA3136 4 uM, oxacillin 0 ug/ml",1
same,Growth of EMRSA-15,"EMRSA-15 [4]; MecA3136 4 uM, oxacillin 16 ug/ml",0
same,Growth of EMRSA-15,"EMRSA-15 [4]; MecA3136 4 uM, oxacillin 32 ug/ml",0
same,Growth of EMRSA-15,"EMRSA-15 [4]; MecA3136 4 uM, oxacillin 64 ug/ml",0
same,Growth of EMRSA-15,"EMRSA-15 [4]; MecA3136 8 uM, oxacillin 0 ug/ml",1
same,Growth of EMRSA-15,"EMRSA-15 [4]; MecA3136 8 uM, oxacillin 16 ug/ml",0
same,Growth of EMRSA-15,"EMRSA-15 [4]; MecA3136 8 uM, oxacillin 64 ug/ml",0
"MecA3140: MecA (PBP2A) binding peptide aptamer, Affimer on Stefin A scaffold, Sequence ID No. 2 (protein, Peptide sequence MecA3140) MHHHHHHSSGLVPCGWLKETAAAKFERQHMDSPDLSTWSHPQFEKGGGSGGGSGGGSWSHPQFEKGTGSGGGSGGGSWSHPQFEKGTGSGGGSGGGSWSHPQFEKGTGSGGGSGGGSWSHPQFEKGTDDDDKAMADIGSEMIPRGLSEAKPATPEIQEIVDKVKPQLEEKTNETYGKLEAVQYKTQVLASTNYYIKVRAGDNKYMHLKVFKSLFVVIQPERSNTWADRVLTGYQVDKNKDDELTGF",MIC of EMRSA-15,EMRSA-15 [1]; [6],>176 µg/mL
same,MIC of EMRSA-15,EMRSA-15 [1]; growth media: no oxacillin,>512 µg/mL
same,binding to MecA and block of oxacillin binding,[3],bind to MecA and block oxycillin binding to MecA
"HIW: MecA (PBP2A) binding peptide aptamer, Sequence ID No. 3 (protein, Peptide sequence HIW) MHHHHHHSSGLVPCGWLKETAAAKFERQHMDSPDLSTWSHPQFEKGGGSGGGSGGGSWSHPQFEKGTGSGGGSGGGSWSHPQFEKGTGSGGGSGGGSWSHPQFEKGTGSGGGSGGGSWSHPQFEKGTDDDDKAMADIGSEMIPRGLSEAKPATPEIQEIVDKVKPQLEEKTNETYGKLEAVQYKTQVLASTNYYIKVRAGDNKYMHLKVFKSLHIWPITEIRRLVADRVLTGYQVDKNKDDELTGF",enhancement of oxacillin activity,EMRSA-15 [2],Clear enhancement of oxacillin activity
same,binding to MecA and block of oxacillin binding,[3],bind to MecA and block oxycillin binding to MecA
same,Growth of EMRSA-15,"EMRSA-15 [5]; HIW 5 ug/ml, oxacillin 0 ug/ml",1
same,Growth of EMRSA-15,"EMRSA-15 [5]; HIW 5 ug/ml, oxacillin 16 ug/ml",1
same,Growth of EMRSA-15,"EMRSA-15 [5]; HIW 5 ug/ml, oxacillin 32 ug/ml",1
same,Growth of EMRSA-15,"EMRSA-15 [5]; HIW 5 ug/ml, oxacillin 64 ug/ml",0
same,Growth of EMRSA-15,"EMRSA-15 [5]; HIW 10 ug/ml, oxacillin 0 ug/ml",1
same,Growth of EMRSA-15,"EMRSA-15 [5]; HIW 10 ug/ml, oxacillin 16 ug/ml",0
same,Growth of EMRSA-15,"EMRSA-15 [5]; HIW 10 ug/ml, oxacillin 32 ug/ml",0
same,Growth of EMRSA-15,"EMRSA-15 [5]; HIW 10 ug/ml, oxacillin 64 ug/ml",0

# Reference: patent US20160089393A1, “COMPOSITION AND METHODS FOR COMBATING ANTIBACTERIAL RESISTANT BACTERIA” (BLUEBERRY THERAPEUTICS LIMITED, priority 2013, published 2016)
